According to publication PMC4336329 (PLoS ONE, 2015):
Out of some 310,000 compounds screened, about 14,000 (4.5%) showed an effect of 50% or more. The effect is printed as a negative number. This is one part of the list.

target: human ether-à-go-go-related gene (hERG) potassium channel (human, UniProt Q12809); experiment: primary screen, population patch clamp on CHO cells stably expressing hERG
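Also: peak tail current of the secondary pulse compared with the same well before compound.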

Chain of human ether-à-go-go-related gene (hERG) potassium channel (Q12809 whole entry, looked up): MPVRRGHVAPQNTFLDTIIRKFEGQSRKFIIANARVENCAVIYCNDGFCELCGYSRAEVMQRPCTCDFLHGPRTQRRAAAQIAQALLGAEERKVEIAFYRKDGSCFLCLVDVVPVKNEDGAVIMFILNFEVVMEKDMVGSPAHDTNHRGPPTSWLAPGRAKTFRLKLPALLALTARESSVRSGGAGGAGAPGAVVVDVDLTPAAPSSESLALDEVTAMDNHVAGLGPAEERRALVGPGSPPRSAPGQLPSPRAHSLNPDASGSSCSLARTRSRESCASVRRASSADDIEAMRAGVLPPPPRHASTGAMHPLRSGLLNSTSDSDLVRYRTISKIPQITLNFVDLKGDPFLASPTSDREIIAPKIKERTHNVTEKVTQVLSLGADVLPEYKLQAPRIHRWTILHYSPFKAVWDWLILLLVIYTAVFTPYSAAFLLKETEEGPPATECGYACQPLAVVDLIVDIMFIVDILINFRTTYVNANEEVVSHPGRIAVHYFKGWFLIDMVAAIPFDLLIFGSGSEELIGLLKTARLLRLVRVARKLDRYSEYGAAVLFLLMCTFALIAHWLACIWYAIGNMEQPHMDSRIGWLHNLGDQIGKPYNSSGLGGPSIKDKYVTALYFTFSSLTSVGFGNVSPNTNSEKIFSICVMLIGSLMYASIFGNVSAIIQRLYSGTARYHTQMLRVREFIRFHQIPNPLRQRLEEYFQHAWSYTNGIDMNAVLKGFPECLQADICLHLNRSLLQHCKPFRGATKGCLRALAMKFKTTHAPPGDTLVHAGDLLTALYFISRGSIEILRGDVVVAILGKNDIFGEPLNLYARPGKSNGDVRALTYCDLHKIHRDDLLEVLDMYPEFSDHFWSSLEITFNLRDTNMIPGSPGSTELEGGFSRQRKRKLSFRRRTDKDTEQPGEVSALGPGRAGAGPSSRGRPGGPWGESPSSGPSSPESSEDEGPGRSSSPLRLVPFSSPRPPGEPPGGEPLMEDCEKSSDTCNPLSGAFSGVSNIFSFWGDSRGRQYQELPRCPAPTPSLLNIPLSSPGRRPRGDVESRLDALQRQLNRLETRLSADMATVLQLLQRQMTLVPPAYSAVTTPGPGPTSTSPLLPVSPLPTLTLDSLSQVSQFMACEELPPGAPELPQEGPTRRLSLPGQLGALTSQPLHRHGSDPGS

Row | Structure (SMILES) | hERG current change (%, negative = inhibition) at 10uM
1 | Cc1cc(C)cc(NC2=NCCCS2)c1 | -15.2%
2 | O=C(NCC(=O)N1CCCCCCC1)c1ccccc1Br | 6.24%
3 | COc1ccc(C2NC(=O)NC(C)=C2C(=O)OC2CCCCC2)cc1OC (centres unmarked) | 3.27%
4 | Cc1c(NC(=O)c2c(N)sc3c2CCCC3)c(=O)n(-c2ccccc2)n1C | -9.72%
5 | CCC(CC)C(=O)Nc1ccc(C)c(O)c1 | 4.51%
6 | COc1ccc(S(=O)(=O)N2CCOC2CNC(=O)C(=O)NCc2ccco2)cc1C (centres unmarked) | -13.9%
7 | CCOC(=O)C(=NCCOC)NNc1cc(Cl)ccc1Cl | -7.8%
8 | C=C(C)C(=O)Nc1cccc(C2=NOC3(C2)C[C@H](C(N)=O)N(C(=O)CC)C3)c1 (some centres unmarked) | 0.598%
9 | COc1cccc(C2C([N+](=O)[O-])=C(N)Oc3c2c(=O)oc2ccccc32)c1 (centres unmarked) | 4.87%
10 | Cc1nn(C)c(Cl)c1NC(=O)OCc1ccc(Cl)cc1Cl | -6.17%
11 | Cc1ccc2nc(SCC(=O)c3ccc(Cl)s3)[nH]c2c1 | 10.2%
12 | Cc1cccc(C)c1NC(=O)c1cnccn1 | 15.3%
13 | CC(=O)c1ccccc1NC(=O)CSc1nnc(Cc2csc(C)n2)o1 | 6.38%
14 | CCCc1[nH]nc2c1C(c1ccc(OC)c(Cn3nc(C)c(Br)c3C)c1)C(C#N)=C(N)O2 (centres unmarked) | -4.82%
15 | C/C(CS(=O)(=O)c1ccc(Cl)c(Cl)c1)=N/NC(N)=S | -18.3%
16 | Fc1ccc(-c2nnn(Cc3ccc(F)cc3Cl)n2)cc1 | 6.42%
17 | Cc1ccc(Sc2ncccc2C(=O)NCC(c2ccc(F)cc2)N2CCOCC2)c(C)c1 (centres unmarked) | -19.1%
18 | Oc1ccccc1/C=N/n1c(-c2ccccc2)n[nH]c1=S | 12.2%
19 | O=C(Cc1cccs1)N1CCN=C1SCc1ccc(F)cc1 | -16.7%

Row | Structure (SMILES) | hERG current change (%, negative = inhibition) at 10uM
20 | COc1ccc(OC)c(-c2cc(C(=O)Nc3ccccc3C(N)=O)c3ccccc3n2)c1 | -5.58%
21 | Cc1cc(NC(=O)COC(=O)C2CCCN2C(=O)c2cccs2)no1 (centres unmarked) | -4.36%
22 | CCCOc1ccccc1C(=O)NC(CO)C(=O)O (centres unmarked) | 7.66%
23 | CCCN(C(=O)c1ccco1)c1nnc(-c2cccc(C)c2)s1 | -8.91%
24 | C=CCNC(=O)CSc1n[nH]c(-c2cc(Cl)ccc2OC)n1 | 8.25%
25 | CC(C)(C)C(=O)CSc1ccc(S(=O)(=O)N2CCN(Cc3ccccc3)CC2)cn1 | -0.498%
26 | CCOC(=O)C1CCN(C(=O)CCc2ccccc2)CC1 | 2.13%
27 | COc1cc(/C=N/n2cnnc2)ccc1OC(=O)c1ccco1 | -0.71%
28 | CCN(CC(=O)NCc1ccc(Cl)cc1)C(=O)CSc1ccc(F)cc1 | -71.1%
29 | O=C(NCCc1ccccc1)/C(=C\c1ccc([N+](=O)[O-])cc1)NC(=O)c1ccc(Br)cc1 | -37.8%
30 | O=C(Nc1ccccc1-c1nc2ccccc2[nH]1)c1ccc(N2C(=O)CCC2=O)cc1 | 9.99%
31 | O=C(CCc1nnc(CCC2CCCCC2)o1)NCc1ccon1 | 3.59%
32 | CCN(CC)S(=O)(=O)c1ccc(O)c(C(=O)OCC(=O)N2c3ccccc3CC2C)c1 (centres unmarked) | -36.2%
33 | COc1ccc(/C=N/NC(=O)c2ccc3nc[nH]c3c2)cc1 | 14.3%
34 | COc1ccc(N2CCN(C(=O)CCc3nnc4ccc(N5CCOCC5)nn34)CC2)cc1 | -5.83%
35 | CC(C)CCNC(=O)C1CCN(S(=O)(=O)c2ccc3c(c2)CC(C)N3C(=O)C2CCC2)CC1 (centres unmarked) | -12.7%
36 | Cc1cccc(S(=O)(=O)NNC(=O)c2sc(C)nc2C)c1 | 4.73%
37 | COc1ccc(N=C2NC(=O)CS2)c([N+](=O)[O-])c1 | 11.4%
38 | Cc1cccc(C(=O)N2CCCC(CCC(=O)N3CCN(c4ccccn4)CC3)C2)c1C (centres unmarked) | -17.3%

Row | Structure (SMILES) | hERG current change (%, negative = inhibition) at 10uM
39 | Cc1cc(C)c2c(N)c(C(=O)NN)sc2n1 | 12.2%
40 | CCOc1cccc(CN2CCC(N3CCC(C(=O)NCC4CCCO4)CC3)CC2)c1 (centres unmarked) | -10.5%
41 | CC(=O)N(C)C1(c2nnnn2CCOC(=O)Nc2ccc(Cl)cc2)CCCCC1 | -5.08%
42 | O=C(CCN1C(=O)c2ccccc2C1=O)OCn1nnc2ccccc2c1=O | 7.17%
43 | Cc1nc2ccc([N+](=O)[O-])cc2s1 | 7.38%
44 | O=c1c2ccccc2nc(/C=C/c2ccc(O)c(O)c2)n1-c1ccccc1 | -1.36%
45 | CN(C)c1ccc(/C=N/Nc2nc3ccccc3o2)cc1 | 23.7%
46 | CCO/N=C(\N)c1[nH]ncc1Br | 7.38%
47 | COCCNc1nc(N)c([N+](=O)[O-])c(NCCO)n1 | -2.23%
48 | O=C(CNC(=O)c1ccc2ccccc2c1)OCC(=O)N1CCN(S(=O)(=O)c2ccc3ccccc3c2)CC1 | 26.4%
49 | COc1ccc(NC(=O)CN2CCN(c3nc(-c4cccc(OC)c4)cs3)CC2)cc1 | -25.1%
50 | COc1ccc(NC(=O)CSc2nnc(C3CC3)n2C)cc1S(=O)(=O)N1CCOCC1 | -0.595%
51 | O=C(O)C(=O)O.OC(CNC1CCCc2ccccc21)COc1c(Cl)cccc1Cl (centres unmarked) | -56.5%
52 | CC1(C)Oc2ccc(C(=O)N3CCOCC3)cc2N(CC(=O)N2CCOCC2)C1=O | 18.7%
53 | COc1ccccc1CCNC(=O)C(=O)NCC1OCCN1S(=O)(=O)c1ccc(C)cc1 (centres unmarked) | -10.2%
54 | O=C(NC1CCN(Cc2ccccc2)CC1)C1CCN(c2nnc(-n3cccc3)s2)CC1 | -59%
55 | Cc1ccc(-c2nn(Cc3ccccc3)cc2/C=C/C(=O)O)cc1 | 9.14%
56 | CCOC(=O)C1=C(c2ccccc2)NC(=O)NC1c1ccsc1 (centres unmarked) | 20.9%
